# Experimental data: a collection of fitness landscapes (doi:10.1016/j.celrep.2020.107928)
# Whole data set: some 81,000 sequences, median “one-hybrid fitness for binding NBS DNA” near -0.1, cut for the highest 2% near 0.36. The list shows a part of the results.
# B1: Caulobacter ParB omega fusion; a variant is named by its letters at X, in order, B8GW30 (parent)
# chain: MESVVVGEPGMSEGRRGLGRGLSALLGEVDAAPAQAPGEQLGGSREAPIEILQRNPDQPRRTFREEDLEDLSNSIREKGVLQPILVRPSPDTAGEYQIVAGERAWRAAQRAGLKTVPIMVRELDDLAVLEIGIIENVQRADLNVLEEALSYKVLMEKFERTQENIAQTIGKSXSHVANXMRLLXLPDEVQSYLVSGELTAXHARAIAAAADPVALAKQIIEGGLSVRETEALARKAPNLSAGKSKGGRPPRVKDTDTQALESDLSSVLGLDVSIDHRGSTGTLTITYATLEQLDDLCNRLTRGI
# Variants of: B1
# Experiment: one-hybrid fitness for binding NBS DNA (the Noc-binding site; scaled: cognate 1, non-cognate 0); higher = stronger binding
# Details: with NBS DNA site
# In short: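 Pre- and post-selection plasmids were Illumina-sequenced, three replicate libraries were pooled, and any variant with under 10 reads was removed. The libraries were Caulobacter ParB with four specificity codons randomised, selected in E. coli USO through a HIS3 reporter whose site is 19 bp from the promoter. Cells grew 48 hours at 37°C on M9 without histidine, with 0.1 mM IPTG and 5 mM 3-AT. Fitness is the log change in variant-to-wild-type read ratio, rescaled against cognate and non-cognate.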
row,Variant,one-hybrid fitness for binding NBS DNA
1,DFEF,≤ 0.2
2,CVRD,≤ 0.2
3,MFTS,≤ 0.2
4,QENM,≤ 0.2
5,HPKW,≤ 0.2
6,AWVK,≤ 0.2
7,ATYE,≤ 0.2
8,IGLR,≤ 0.2
9,CIPT,≤ 0.2
10,TLPD,≤ 0.2
11,LCFD,≤ 0.2
12,GVVD,≤ 0.2
13,DMES,≤ 0.2
14,YEKT,≤ 0.2
15,RAWN,≤ 0.2
16,AATL,≤ 0.2
17,KTAT,≤ 0.2
18,HNWA,≤ 0.2
19,YMYC,≤ 0.2
20,LSYA,≤ 0.2
21,LVFR,≤ 0.2
22,RLID,≤ 0.2
23,STKR,0.254
24,RFCN,≤ 0.2

row,Variant,one-hybrid fitness for binding NBS DNA
1,NHSC,≤ 0.2
2,SYEL,≤ 0.2
3,LPKS,≤ 0.2
4,AYSV,≤ 0.2
5,YMLT,≤ 0.2
6,TLRY,≤ 0.2
7,QGHN,≤ 0.2
8,ESFS,≤ 0.2
9,HRLF,≤ 0.2
10,AKHH,≤ 0.2
11,RRFM,0.266
12,STCA,≤ 0.2
13,RHQM,≤ 0.2
14,GNGK,≤ 0.2
15,HNRK,≤ 0.2
16,ANEE,≤ 0.2
17,LVES,≤ 0.2
18,IDIR,≤ 0.2
19,PGYS,≤ 0.2
20,WRNP,≤ 0.2
21,YQDF,≤ 0.2
22,YNDM,≤ 0.2
23,PMDV,≤ 0.2
24,IDNP,≤ 0.2

row,Variant,one-hybrid fitness for binding NBS DNA
1,TLKH,≤ 0.2
2,LFIS,≤ 0.2
3,GNQT,≤ 0.2
4,VWIG,≤ 0.2
5,QHVN,≤ 0.2
6,EFEC,≤ 0.2
7,HFMS,≤ 0.2
8,ALIL,≤ 0.2
9,INPF,≤ 0.2
10,VMVP,≤ 0.2
11,KCDC,≤ 0.2
12,CLSV,≤ 0.2
13,TITQ,≤ 0.2
14,YMVD,≤ 0.2
15,RIFR,0.243
16,FVSL,≤ 0.2
17,RQAD,≤ 0.2
18,RQQR,0.475
19,NLET,≤ 0.2
20,YAVR,≤ 0.2
21,FSNP,≤ 0.2
22,SHQN,≤ 0.2
23,FSAA,≤ 0.2
24,EHQT,≤ 0.2

row,Variant,one-hybrid fitness for binding NBS DNA
1,KAKM,≤ 0.2
2,CNNG,≤ 0.2
3,PMYL,≤ 0.2
4,DYLN,≤ 0.2
5,RLDR,≤ 0.2
6,CCLN,≤ 0.2
7,PYEM,≤ 0.2
8,SLQM,≤ 0.2
9,WLFR,≤ 0.2
10,AFLS,≤ 0.2
11,MCII,≤ 0.2
12,PMQH,≤ 0.2
13,MFGA,≤ 0.2
14,RHFL,≤ 0.2
15,SQRN,≤ 0.2
16,RDKD,≤ 0.2
17,GFER,≤ 0.2
18,YNMS,≤ 0.2
19,GSRR,≤ 0.2
20,YNTY,≤ 0.2
21,ADGG,≤ 0.2
22,MVTH,≤ 0.2
23,SSRH,≤ 0.2
24,KLHS,≤ 0.2

row,Variant,one-hybrid fitness for binding NBS DNA
1,SGHV,≤ 0.2
2,HHPS,≤ 0.2
3,MPAV,≤ 0.2
4,DRHC,≤ 0.2
5,MCTC,≤ 0.2
6,GPEG,≤ 0.2
7,TPEK,≤ 0.2
8,VVPL,≤ 0.2
9,LYIG,≤ 0.2
10,PYMR,≤ 0.2
11,QIDR,0.234
12,QDML,≤ 0.2
13,KWPG,≤ 0.2
14,SYVA,≤ 0.2
15,DPKF,≤ 0.2
16,RRHH,0.525
17,RMIP,≤ 0.2
18,RTED,≤ 0.2
19,PAAR,≤ 0.2
20,RKDC,≤ 0.2
21,IKVW,≤ 0.2
22,ARRH,≤ 0.2
23,PHSI,≤ 0.2
24,NRHT,≤ 0.2

row,Variant,one-hybrid fitness for binding NBS DNA
1,HSML,≤ 0.2
2,GTTW,≤ 0.2
3,IRSN,≤ 0.2
4,RCYK,≤ 0.2
5,HLQN,≤ 0.2
6,TRFH,≤ 0.2
7,SDPF,≤ 0.2
8,PTIW,≤ 0.2
9,FASW,≤ 0.2
10,YTNC,≤ 0.2
11,HEIY,≤ 0.2
12,KRWH,≤ 0.2
13,HVCT,≤ 0.2
14,RYKV,≤ 0.2
15,NLMN,≤ 0.2
16,TYTI,≤ 0.2
17,WAGE,≤ 0.2
18,HPGG,≤ 0.2
19,CGYC,≤ 0.2
20,PLNN,≤ 0.2
21,GSRL,≤ 0.2
22,DVRF,≤ 0.2
23,AWFS,≤ 0.2
24,QDTS,≤ 0.2

row,Variant,one-hybrid fitness for binding NBS DNA
1,DDWR,≤ 0.2
2,SAHW,≤ 0.2
3,QNKN,≤ 0.2
4,INIS,≤ 0.2
5,IHTG,≤ 0.2
6,GWQS,≤ 0.2
7,THHL,≤ 0.2
8,TQRN,≤ 0.2
9,MHYR,≤ 0.2
10,HCNY,≤ 0.2
11,QISV,≤ 0.2
12,SPHK,≤ 0.2
13,GNRN,≤ 0.2
14,ALCV,≤ 0.2
15,EPNK,≤ 0.2
16,INQE,≤ 0.2
17,QKEA,≤ 0.2
18,SWRC,≤ 0.2
19,NTFW,≤ 0.2
20,RDPF,≤ 0.2
21,DGVD,≤ 0.2
22,WFMG,≤ 0.2
23,PCAA,≤ 0.2
24,NMFC,≤ 0.2

row,Variant,one-hybrid fitness for binding NBS DNA
1,VCMT,≤ 0.2
2,WTAC,≤ 0.2
3,RGPT,≤ 0.2
4,RVPL,≤ 0.2
5,LYKV,≤ 0.2
6,SPFL,≤ 0.2
7,ARAD,≤ 0.2
8,WRHG,≤ 0.2
9,AAFE,≤ 0.2
10,PKRC,≤ 0.2
11,HTLN,≤ 0.2
12,LKKG,≤ 0.2
13,YLGM,≤ 0.2
14,AIEY,≤ 0.2
15,MMGG,≤ 0.2
16,TLIA,≤ 0.2
17,RYTQ,≤ 0.2
18,ERAL,≤ 0.2
19,AIKG,≤ 0.2
20,KYRY,≤ 0.2
21,REHS,≤ 0.2
22,WTYW,≤ 0.2
23,PTAR,≤ 0.2
24,VRLI,≤ 0.2

row,Variant,one-hybrid fitness for binding NBS DNA
1,VDFR,≤ 0.2
2,PATA,≤ 0.2
3,TKKN,≤ 0.2
4,NHRS,≤ 0.2
5,TDVS,≤ 0.2
6,RSYG,≤ 0.2
7,KYVS,≤ 0.2
8,GTMR,≤ 0.2
9,PSQG,≤ 0.2
10,THRC,≤ 0.2
11,LTKT,≤ 0.2
12,PSPW,≤ 0.2
13,GFRV,≤ 0.2
14,QKHR,0.661
15,MARS,≤ 0.2
16,QIVC,≤ 0.2
17,DRQS,≤ 0.2
18,SESN,≤ 0.2
19,STNM,≤ 0.2
20,KFSM,≤ 0.2
21,SEHA,≤ 0.2
22,PSVC,≤ 0.2
23,VGHG,≤ 0.2
24,FLIS,≤ 0.2

row,Variant,one-hybrid fitness for binding NBS DNA
1,SCAS,≤ 0.2
2,VQEP,≤ 0.2
3,QHLR,0.445
4,QHGQ,≤ 0.2
5,KYST,≤ 0.2
6,HSTT,≤ 0.2
7,AVWR,≤ 0.2
8,FKRL,≤ 0.2
9,QWVM,≤ 0.2
10,EHDV,≤ 0.2
11,IVNG,≤ 0.2
12,CIVL,≤ 0.2
13,VAPS,≤ 0.2
14,HFRT,≤ 0.2
15,RGMV,≤ 0.2
16,EFPF,≤ 0.2
17,YQPD,≤ 0.2
18,MMIS,≤ 0.2
19,ELCL,≤ 0.2
20,IDHN,≤ 0.2
21,YPSY,≤ 0.2
22,QQEM,≤ 0.2
23,FQYS,≤ 0.2
24,RNVQ,≤ 0.2

row,Variant,one-hybrid fitness for binding NBS DNA
1,DYNT,≤ 0.2
2,LHTC,≤ 0.2
3,WAWL,≤ 0.2
4,NRMA,≤ 0.2
5,ICTE,≤ 0.2
6,QRHA,0.629
7,RMIC,≤ 0.2
8,SWKL,≤ 0.2
9,TPNE,≤ 0.2
10,SMAA,≤ 0.2
11,VADE,≤ 0.2
12,QDVE,≤ 0.2
13,HRPD,≤ 0.2
14,EPTE,≤ 0.2
15,HCVR,≤ 0.2
16,VWVS,≤ 0.2
17,VACT,≤ 0.2
18,HNHV,≤ 0.2
19,TYYH,≤ 0.2
20,QDYS,≤ 0.2
21,SGAK,≤ 0.2
22,QLKD,≤ 0.2
23,VRAD,≤ 0.2
24,VNRS,≤ 0.2

row,Variant,one-hybrid fitness for binding NBS DNA
1,WREW,≤ 0.2
2,RYQP,≤ 0.2
3,LEFS,≤ 0.2
4,SRIH,≤ 0.2
5,LFDE,≤ 0.2
6,PNTP,≤ 0.2
7,PGRW,≤ 0.2
8,ETTA,≤ 0.2
9,CSKH,≤ 0.2
10,RCVT,0.319
11,RGYY,≤ 0.2
12,GNFG,≤ 0.2
13,AEFG,≤ 0.2
14,MQSV,≤ 0.2
15,QHRE,0.202
16,EWST,≤ 0.2
17,LSHS,≤ 0.2
18,PQVG,≤ 0.2
19,LRYM,≤ 0.2
20,DTDW,≤ 0.2
21,SAVG,≤ 0.2
22,PSLE,≤ 0.2
23,QTAW,≤ 0.2
24,TDYT,≤ 0.2

row,Variant,one-hybrid fitness for binding NBS DNA
1,MITC,≤ 0.2
2,GHTA,≤ 0.2
3,NRIT,≤ 0.2
4,QDQS,≤ 0.2
5,QMRV,0.45
6,PTKV,≤ 0.2
7,KCFF,≤ 0.2
8,KTHG,≤ 0.2
9,NVKC,≤ 0.2
10,EWKD,≤ 0.2
11,HALA,≤ 0.2
12,NGDG,≤ 0.2
13,QMKA,0.596
14,PADW,≤ 0.2
15,TQMT,≤ 0.2
16,STGQ,≤ 0.2
17,YCRC,≤ 0.2
18,CGVT,≤ 0.2
